This note sets out measurements from PMC12136788.

T1: UNK ZnF1-3 (human, UniProt Q9C0B0 31-174)
T1 sequence: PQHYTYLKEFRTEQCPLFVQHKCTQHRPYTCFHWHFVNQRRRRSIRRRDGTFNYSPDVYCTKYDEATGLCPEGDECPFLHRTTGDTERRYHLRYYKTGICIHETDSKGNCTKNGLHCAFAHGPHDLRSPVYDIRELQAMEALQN

B1: chr7:141438946:141438947:+_ENSG00000106028_ENST00000265304|hu_mus|hu_hu_hu_mus_True|8_78 (ssRNA)
RNA: GGGAGUUCUACAGUCCGACGAUCGACGAAAUACCUGUAACACAGGUCUUCGAAACAUUCUAUUUUCUUUUCUUACAACCUAAUCUUUAGGCUUUUCCUAAAGGAAAGAAAGAAAAGAGAAAAAUGAGCAGGGGAUCAACUACACAACAGAGGAUUGAGCAUCA
B2: chr15:60656694:60656695:-_ENSG00000182718_ENST00000451270|hu_hu|FALSE|FALSE (ssRNA)
RNA: GGGAGUUCUACAGUCCGACGAUCUCUCUGGUAGGCGAAGGCAAUAUCCUGUCUCUGUGCAUUGCUGCGGUUGGUCAAAAUGUUGACAAUGGUGACCUCAUCCACACCUUUGGUCUUGAUGGCUGUUUCAAUGUUCAAAGCAUCCAACAGAGGAUUGAGCAUCA
B3: chrX:71549762:71549763:+_ENSMUSG00000019087_ENSMUST00000019231|mus_mus|mus_mus_mus_hu_False|78_98 (ssRNA)
RNA: GGGAGUUCUACAGUCCGACGAUCAAACCCGUGUACUCACUCUUAACAGCACAACAUUCCCCCCCAACGAUAACGACAGCCAAGCAGGACAGACAGUUAAGUAGUACUUCCACACUCCCAAACUCAGGGAGCCCUAUAACCUUACAACAGAGGAUUGAGCAUCA
B4: chr3:10015032:10015033:+_ENSMUSG00000027533_ENSMUST00000029046|mus_mus|mus_mus_mus_hu_True|8_38 (ssRNA)
RNA: GGGAGUUCUACAGUCCGACGAUCGUUUUUACCAUCACAAGUGAUGAUACAAUCUGGCUUGGCCAUUGCGCCCAUUUUUCGCAAAGCUAUUCCCACUCCUAGCUCUUUCAUGUAUUCAUCAAAGCCUUGGCUUUCCACCAGGCGCAACAGAGGAUUGAGCAUCA
B5: chr5:145543945:145543946:-_ENSG00000133706_ENST00000545646|hu_hu|hu_hu_hu_mus_True|48_108 (ssRNA)
RNA: GGGAGUUCUACAGUCCGACGAUCCUGAAUAGCCAGUGGUGGGAAAUAAUCAAGCCAGUGCUCUGCUUCAGAAAACUUCACUAUGUCUUCAUCAGACAGCCCAAGGGAUUUCAUAAUGUCCCACUGGUACUUAGAAGAUCCUGCCAACAGAGGAUUGAGCAUCA
B6: chr14:66974463:66974464:+_ENSMUSG00000022044_ENSMUST00000074523|mus_hu|mus_mus_mus_hu_False|1_38 (ssRNA)
RNA: GGGAGUUCUACAGUCCGACGAUCUUGUAGGACGACUUAUUCAGGGGAUCGGCCAGGAAGCAGGAGCAGAACAAGGACACCAGCGGGAGCUCCUUCAUCUUCUCCUUGUAGGCAGCAAGGGUCAUGUUUCUGGGAUCCUGGUGGCAACAGAGGAUUGAGCAUCA
B7: chr9:79619141:79619142:-_ENSMUSG00000032328_ENSMUST00000034878|mus_hu|FALSE|FALSE (ssRNA)
RNA: GGGAGUUCUACAGUCCGACGAUCAAAUUAAAUGGUAAUGUCAGCUGUAUUACUACUGUUUCUAUAUUUAUGAUUAAUUACUAGCAGUACAACUCCCAGAAGGAAGGAGAUGGAUCCAACAGCGAUGUAAGCAAUCCCCAAAAACAACAGAGGAUUGAGCAUCA
B8: chr1:93819538:93819539:+_ENSG00000117505_ENST00000370267|hu_hu|FALSE|FALSE (ssRNA)
RNA: GGGAGUUCUACAGUCCGACGAUCUUCUUCAGGAAUGCCAAGGUUUUCCAAACGAGAACUGGCCUUUCUUCUUUUUAAUGCUACUGUUUUACACUCUUGCAAGACUUCUUUUACUUCACUGAUGUAAGAGCCAAAUCCCAAACUCAACAGAGGAUUGAGCAUCA
B9: chr18:77733610:77733611:-_ENSG00000141759_ENST00000592957|hu_hu|FALSE|FALSE (ssRNA)
RNA: GGGAGUUCUACAGUCCGACGAUCUGUUAUCAAUUCCAUCUCAGAGGUGCUCCAGCCCUGGAGCUUCCUGUAUUUUCCAAAGGCUUUAAAUAGCUUAAAACGUUUCCAUACAAAAAGGGCUCCACGACAUUUAUCCGCGCAGACCAACAGAGGAUUGAGCAUCA
B10: chr1:46159212:46159213:+_ENSG00000159596_ENST00000372025|hu_mus|hu_hu_hu_mus_True|8_108 (ssRNA)
RNA: GGGAGUUCUACAGUCCGACGAUCUCUGAUCCCACCCAAGAAAGCUAGGAAACCGGCUCCAUAAGCCAUCUGAGUGAAAGCUAGGACGGGGAUAUAAGACUUUGUUAUUACCAUGAGAAGUGGGGGAGCAACGAAGGGGAUUAACAACAGAGGAUUGAGCAUCA
B11: chr6:86246577:86246578:-_ENSG00000135317_ENST00000369627|hu_mus|motif|central (ssRNA)
RNA: GGGAGUUCUACAGUCCGACGAUCUAAUUAGGCAGCACAGCUCCCUCCAUUGUCGUACUCUUGAAUACGCCUUUAAUUUUGCGGCCGGUUCUGCUGAUUCCAAACGAUUCUCCUCUUUUUUGUGUGCUUCUAAAUAUUAAACAACAACAGAGGAUUGAGCAUCA
B12: chr11:18503389:18503390:-_ENSG00000074319_ENST00000251968|hu_hu|hu_hu_hu_mus_True|18_38 (ssRNA)
RNA: GGGAGUUCUACAGUCCGACGAUCAUUUUCCAUUUUCUCCAGAGCAGAACUUAGUUCUUCAUCCUUCUUUUUCAAAAGUUCUAUGUUUUUAUCAACUUCGGCUACUUCUUGAUCUAAACGGGUAACCAUCUCUUCCAGUUUCUGCAACAGAGGAUUGAGCAUCA
B13: chr3:154749246:154749247:-_ENSMUSG00000053870_ENSMUST00000066568|mus_mus|motif|central (ssRNA)
RNA: GGGAGUUCUACAGUCCGACGAUCGUUUUGUUACGUGUUGUCUCACUAUGAGAAGUUGAGCAAUACAAUCCUCCAUAUCACCGGGAAUUUUAUUGGUCCAAAUUUCAAAAGAAGAUAGAAAAGCUUUAAAGAUAUGUUAUGUUUCAACAGAGGAUUGAGCAUCA
B14: chr4:148551591:148551592:-_ENSMUSG00000063077_ENSMUST00000060537|mus_hu|mus_mus_mus_hu_False|48_58 (ssRNA)
RNA: GGGAGUUCUACAGUCCGACGAUCACCUGACAAAAUUAAAUAUCCCUGUAAAUUAGACAAUAAGCAGCAGGCAACAAAGUCUAUGCUUUGAAAUAUGUGCCAGGAAAAGUCAUCUUGUUUUUAGAUCUCAAGAGACAGUUCACACAACAGAGGAUUGAGCAUCA

The list shows a part of the results.

This assay addresses T1, UNK ZnF1-3. Kind of assay: nsRBNS (natural sequence RNA bind-n-seq); RBNS binding buffer (assumed for nsRBNS): 25 mM Tris pH 7.5, 150 mM KCl, 3 mM MgCl2, 0.01% Triton X-100, 500 ug/ml BSA, 20 U/ml SUPERase-In, 4 C; UNK is unkempt and MSI1 is Musashi-1; names of the RNAs are library labels; protein concentration not given here; high values mean tight binding.
In turn, B1 came in with a binding signal of 0.239 enrichment R.

Turning to B2, the binding signal was 0.703 enrichment R.

For B3, the binding signal worked out at 1.52 enrichment R.

As for B4, the binding signal came out at 0.648 enrichment R.

B5: the binding signal amounted to 1.04 enrichment R.

The molecule B6 showed a binding signal of 1.61 enrichment R.

B7: the binding signal stood at 1.4 enrichment R.

B8 showed a binding signal of 0.484 enrichment R.

Molecule B9 displayed a binding signal of 0.969 enrichment R.

B10 showed a binding signal of 1.44 enrichment R.

In turn, B11 yielded a binding signal of 0.782 enrichment R.

With B12, the binding signal turned out to be 0.437 enrichment R.

B13 gave a binding signal of 2.78 enrichment R.

In turn, B14 came in with a binding signal of 1.09 enrichment R.
